Laboratory results reported in the antibiotic and cytotoxicity screens of Wong et al. (2023).
This is one part of the list.

Test system: HepG2
Assay: cytotoxicity call (relative viability < 0.9)
Conditions: 10 µM

| SMILES | cytotoxicity call |
| --- | --- |
| C[C@H]1CCCCO[C@H](CN(C)C(=O)c2ccccc2)[C@@H](C)CN([C@@H](C)CO)C(=O)c2cc(NC(=O)Nc3ccc4c(c3)OCO4)ccc2O1 | inactive |
| C[C@@H]1CCCCO[C@@H](CN(C)C(=O)Nc2ccccc2)[C@H](C)CN([C@H](C)CO)C(=O)c2cc(NC(=O)c3ccccc3)ccc2O1 | inactive |
| C[C@@H]1CN([C@H](C)CO)C(=O)c2cc(NS(=O)(=O)c3ccc(Cl)cc3)ccc2O[C@@H](C)CCCCO[C@@H]1CN(C)C(=O)CCC(F)(F)F | inactive |
| CO[C@@H]1CN(C)C(=O)c2ccc(NC(=O)C3CCOCC3)cc2OC[C@@H](C)N(CC2CCOCC2)C[C@H]1C | inactive |
| Cc1ccc(S[C@]2(C(=O)NCc3ccccc3)CC(=O)N(Cc3ccccc3C(F)(F)F)[C@@H]2c2ccc(CO)cc2)cc1 | inactive |
| Cc1noc(C)c1NC(=O)N(C)C[C@@H]1Oc2ccc(NS(=O)(=O)c3ccccc3)cc2C(=O)N([C@H](C)CO)C[C@H]1C | inactive |
| Cc1ccc(Sc2c(-c3ccccc3)nc3sccn23)cc1 | inactive |
| Cc1noc(C)c1S(=O)(=O)Nc1cccc2c1O[C@H](CN(C)Cc1ccccc1)[C@H](C)CN([C@H](C)CO)C2=O | inactive |
| Cc1ccc(S(=O)(=O)N2C[C@H](O)COC[C@@H]3O[C@@H](CC(=O)N4CCc5ccccc5C4)CC[C@H]32)cc1 | inactive |
| C[C@]1(CC(=O)O)C(=O)N=C2C=CC=CN21 | inactive |
| COc1ccc(S(=O)(=O)N(C)C[C@@H]2Oc3ccc(NS(=O)(=O)c4cn(C)cn4)cc3CC(=O)N([C@H](C)CO)C[C@@H]2C)cc1 | inactive |
| C[C@@H]1CN([C@H](C)CO)C(=O)c2cc(NC(=O)Cc3ccccc3)ccc2O[C@@H](C)CCCCO[C@H]1CN(C)Cc1ccc(C(F)(F)F)cc1 | active |

Test system: S. aureus RN4220
Assay: growth inhibition call (relative growth <= 0.2)
Conditions: 50 µM

| SMILES | growth inhibition call |
| --- | --- |
| Cc1noc(C)c1NC(=O)Nc1ccc2c(c1)CC(=O)N([C@@H](C)CO)C[C@@H](C)[C@@H](CN(C)C(=O)NC(C)C)O2 | inactive |
| O=C(C[C@H]1C=C[C@@H](NC(=O)CN2CCOCC2)[C@H](CO)O1)NCCc1ccccc1 | inactive |
| C[C@@H]1CN([C@H](C)CO)S(=O)(=O)c2ccc(-c3ccc(F)cc3)cc2O[C@H]1CN(C)S(C)(=O)=O | inactive |
| Cn1cnc(CCNC(=O)C[C@@H]2CC[C@H]3[C@@H](COC[C@H](O)CN3C(=O)Nc3ccc(C(F)(F)F)cc3)O2)c1 | inactive |
| C[C@@H]1CN([C@H](C)CO)C(=O)c2cc(NS(=O)(=O)c3ccc(Cl)cc3)ccc2O[C@H]1CN(C)Cc1ccc(Oc2ccccc2)cc1 | inactive |
| C[C@@H]1CN([C@@H](C)CO)C(=O)c2cccc(NS(=O)(=O)c3ccc(F)cc3)c2O[C@@H]1CN(C)C(=O)Nc1ccc(C(F)(F)F)cc1 | inactive |
| O=C(O)c1cc(O)c(O)c(O)c1 | inactive |
| C[C@H](CO)N1C[C@H](C)[C@H](CN(C)Cc2ccncc2)Oc2c(NC(=O)C3CCOCC3)cccc2C1=O | inactive |
| C[C@@H]1CN([C@H](C)CO)C(=O)c2cc(NC(=O)Nc3cccc4ccccc34)ccc2O[C@H]1CN(C)Cc1ccc(C(F)(F)F)cc1 | inactive |
| O=C(C[C@@H]1CC[C@H]2[C@@H](COC[C@H](O)CN2C(=O)Nc2cccc(Cl)c2)O1)NCc1ccccc1F | active |
| C[C@@H]1CN([C@@H](C)CO)C(=O)Cc2cc(NS(=O)(=O)c3ccc(F)cc3)ccc2O[C@H]1CN(C)S(=O)(=O)c1cccs1 | inactive |
| CC(C)NC(=O)N(C)C[C@H]1Oc2ccc(NS(=O)(=O)c3cn(C)cn3)cc2CC(=O)N([C@@H](C)CO)C[C@@H]1C | inactive |
| C[C@H](CO)N1C[C@H](C)[C@H](CN(C)Cc2ccncc2)Oc2ccc(NS(=O)(=O)c3ccc(F)cc3)cc2CC1=O | inactive |
| C[C@H](CO)N1C[C@H](C)[C@H](CN(C)Cc2ccccc2)OCCCC[C@H](C)Oc2ccc(NC(=O)c3ccccc3)cc2C1=O | inactive |
| COc1ccc(S(=O)(=O)Nc2ccc3c(c2)C(=O)N([C@@H](C)CO)C[C@H](C)[C@@H](CN(C)C(=O)Nc2ccccc2)OCCCC[C@@H](C)O3)cc1 | inactive |
| C[C@@H]1CN([C@H](C)CO)C(=O)c2cc(NC(=O)Cc3cn(C)c4ccccc34)ccc2O[C@H]1CN(C)Cc1ccc(C(F)(F)F)cc1 | inactive |
| C[C@H](CO)N1C[C@H](C)[C@@H](CN(C)S(=O)(=O)c2ccccc2)Oc2ccc(NC(=O)CCCN(C)C)cc2CC1=O | inactive |
| Cc1ccc(S(=O)(=O)N(C)C[C@@H]2OCCCC[C@H](C)Oc3ccc(NC(=O)C4CCCCC4)cc3C(=O)N([C@@H](C)CO)C[C@H]2C)cc1 | inactive |
| C[C@@H]1CN([C@H](C)CO)C(=O)c2cc(NS(C)(=O)=O)ccc2O[C@@H](C)CCCCO[C@@H]1CN(C)Cc1ccc(C(F)(F)F)cc1 | inactive |
| CC(C)NC(=O)Nc1ccc2c(c1)CC(=O)N([C@H](C)CO)C[C@H](C)[C@@H](CN(C)Cc1ccc(C(=O)O)cc1)O2 | inactive |

| SMILES | growth inhibition call |
| --- | --- |
| Cc1ccc(S(=O)(=O)N(C)C[C@@H]2OCCCC[C@H](C)Oc3ccc(NC(=O)Nc4ccc(F)cc4)cc3C(=O)N([C@@H](C)CO)C[C@H]2C)cc1 | inactive |
| Cc1ccc(S(=O)(=O)N(C)C[C@@H]2OCCCC[C@H](C)Oc3ccc(NC(=O)c4ccccc4)cc3C(=O)N([C@H](C)CO)C[C@@H]2C)cc1 | inactive |
| C[C@H]1CN([C@@H](C)CO)C(=O)c2cc(NC(=O)Nc3cccc4ccccc34)ccc2O[C@@H]1CN(C)S(=O)(=O)c1cccs1 | inactive |
| COCC(=O)N1C[C@H](C)[C@@H](OC)CN(C)C(=O)c2cc(NC(=O)c3ccc(OC)cc3)ccc2OC[C@@H]1C | inactive |
| COc1ccc(NC(=O)Nc2ccc3c(c2)C(=O)N([C@H](C)CO)C[C@@H](C)[C@H](CN(C)CC2CC2)OCCCC[C@@H](C)O3)cc1 | inactive |
| COc1ccc(S(=O)(=O)N(C)C[C@H]2OCCCC[C@H](C)Oc3ccc(NC(=O)Nc4cccc5ccccc45)cc3C(=O)N([C@@H](C)CO)C[C@@H]2C)cc1 | inactive |
| COc1ccc(S(=O)(=O)N(C)C[C@@H]2Oc3ncc(C#Cc4cccc(F)c4)cc3C(=O)N([C@H](C)CO)C[C@@H]2C)cc1 | inactive |
| CC(C)NCC(O)COc1ccc(CC(N)=O)cc1 (configuration not stated) | inactive |
| C[C@H]1CCCCO[C@H](CN(C)C(=O)c2ccccc2)[C@@H](C)CN([C@@H](C)CO)C(=O)c2cc(NC(=O)Nc3ccc4c(c3)OCO4)ccc2O1 | inactive |
| C[C@@H]1CCCCO[C@@H](CN(C)C(=O)Nc2ccccc2)[C@H](C)CN([C@H](C)CO)C(=O)c2cc(NC(=O)c3ccccc3)ccc2O1 | inactive |
| C[C@@H]1CN([C@H](C)CO)C(=O)c2cc(NS(=O)(=O)c3ccc(Cl)cc3)ccc2O[C@@H](C)CCCCO[C@@H]1CN(C)C(=O)CCC(F)(F)F | inactive |
| CO[C@@H]1CN(C)C(=O)c2ccc(NC(=O)C3CCOCC3)cc2OC[C@@H](C)N(CC2CCOCC2)C[C@H]1C | inactive |
| Cc1ccc(S[C@]2(C(=O)NCc3ccccc3)CC(=O)N(Cc3ccccc3C(F)(F)F)[C@@H]2c2ccc(CO)cc2)cc1 | inactive |
| Cc1noc(C)c1NC(=O)N(C)C[C@@H]1Oc2ccc(NS(=O)(=O)c3ccccc3)cc2C(=O)N([C@H](C)CO)C[C@H]1C | inactive |
| Cc1ccc(Sc2c(-c3ccccc3)nc3sccn23)cc1 | inactive |
| Cc1noc(C)c1S(=O)(=O)Nc1cccc2c1O[C@H](CN(C)Cc1ccccc1)[C@H](C)CN([C@H](C)CO)C2=O | inactive |
| Cc1ccc(S(=O)(=O)N2C[C@H](O)COC[C@@H]3O[C@@H](CC(=O)N4CCc5ccccc5C4)CC[C@H]32)cc1 | inactive |
| C[C@]1(CC(=O)O)C(=O)N=C2C=CC=CN21 | inactive |
| COc1ccc(S(=O)(=O)N(C)C[C@@H]2Oc3ccc(NS(=O)(=O)c4cn(C)cn4)cc3CC(=O)N([C@H](C)CO)C[C@@H]2C)cc1 | inactive |
| C[C@@H]1CN([C@H](C)CO)C(=O)c2cc(NC(=O)Cc3ccccc3)ccc2O[C@@H](C)CCCCO[C@H]1CN(C)Cc1ccc(C(F)(F)F)cc1 | inactive |
